PubChem BioAssay AID686979 (National Center for Advancing Translational Sciences (NCATS), 2013)
“And” between values parts separate entries of the source, which are not always exact repeats. Equal entries are not always repeated. The whole screen tested about 420,000 compounds, of which about 50,000 (12%) were called active. This list was built around the results that the source calls inconclusive (neither active nor inactive); the mix of calls is not that of the screen. Calls come from the whole dose curve; as a rule, active = well fitted inhibition curve with a large enough effect; inconclusive = small, poorly fitted or top-dose-only effect; inactive = flat fitted curve, though single readings scatter. Where the call is inconclusive, the potency comes from a doubtful curve fit.

Assay: qHTS for Inhibitors of human tyrosyl-DNA phosphodiesterase 1 (TDP1): qHTS in cells in presence of CPT; note: nearly all actives have a fitted effect of over 55% in size
Settings: chicken DT40 Tdp1-/-;hTDP1 cells + 20 nM CPT, ATP luminescence, 48 h; activity change, negative = growth inhibition: at 46.2 µM (top of the series) unless noted
Summary of the method: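 Chicken DT40 Tdp1-/- cells stably complemented with human TDP1 were seeded at 400 cells/well in medium containing 20 nM camptothecin, exposed to pin-transferred compounds, and grown at 37 °C for at least 48 hr. Viability was read as ATP luminescence.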
% is set by controls: 0 for no effect and ±100 for the full control effect; potency is the fitted concentration of half-maximal effect; tags give direction and shape of the fitted curve.

Row | Compound | Potency | activity change, negative = growth inhibition
1 | COc1ccccc1N1CCN(C(=O)C(C)N(c2ccc(C)c(C)c2)S(C)(=O)=O)CC1 (stereo not drawn) | active: 14.6 µM | –
2 | COC(=O)c1c(C)n(-c2ccccc2)c2ccc(O)cc12 | inconclusive: 29.1 µM [inhibitor, single point] | –
3 | CCCCn1nnnc1C(c1ccccc1)N1CCN(c2ccc(C(F)(F)F)cn2)CC1 (stereo not drawn) | inconclusive: 29.1 µM [inhibitor, single point] | –
4 | O=C(Nc1cccn(Cc2c(Cl)cccc2Cl)c1=O)c1ccc(Cl)cc1Cl | inconclusive: 16.4 µM [inhibitor, partial curve] | –
5 | O=C(c1cc2ccccc2o1)N1CCN(Cc2ccccc2)CC1 | inconclusive: 33.5 µM [inhibitor, single point] and inconclusive: 29.1 µM [inhibitor, single point] | –
6 | Cc1ccc(-c2nc(NCc3ccco3)c3ccccc3n2)cc1 | inconclusive: 29.1 µM [inhibitor, single point] | –
7 | O=C1NC(=O)/C(=C\c2cn(CC(=O)N3CCOCC3)c3ccccc23)S1 | inactive | –
8 | COc1ccc(/C=C(\NC(=O)c2ccccc2)C(=O)N/N=C/c2ccncc2)cc1 | inactive | –
9 | O=C(NCc1ncc(C(F)(F)F)cc1Cl)Nc1ccccc1 | inactive | –
10 | COc1ccc(NC(=O)C2CCN(C3=NS(=O)(=O)C(c4ccc(C)c(C)c4)=C3C)CC2)c(OC)c1 | inconclusive: 29.1 µM [inhibitor, single point] | –
11 | Cc1ccc(NC(=O)CSc2ccc(-c3ccccn3)nn2)c(C)c1 | inconclusive: 23.1 µM [inhibitor, single point] | –
12 | COc1cc(CNC(=O)c2cc(-c3ccc(OC)cc3C)n[nH]2)cc(OC)c1 | – | inconclusive: -35.2% [inhibitor]
13 | COC(=O)c1sc2nc(CSc3nc4ccc(C)cc4[nH]3)[nH]c(=O)c2c1C | inconclusive: 29.1 µM [inhibitor, single point] | –
14 | O=C(COc1ccc(Cl)cc1)Nc1nc(-c2cccs2)cs1 | inconclusive: 25.9 µM [inhibitor, single point] | –
15 | COc1cc(C2NC(=O)NC(C)=C2C(=O)OC(C)C)ccc1OC(=O)c1ccco1 (stereo not drawn) | inconclusive: 16.4 µM [inhibitor, single point] | –
16 | COC(=O)c1ccc(/C=C/C(=O)OCC(=O)Nc2cc(C)on2)cc1 | inactive | –
17 | CNC(=O)c1[nH]cnc1C(=O)N[C@@H](Cc1ccccc1)C(=O)OCc1ccccc1 | active: 14.6 µM | –
18 | COc1ccccc1NS(=O)(=O)c1ccc(NC(=O)c2ccncc2)cc1 | inconclusive: 4.11 µM [inhibitor, single point] | –
